Experimental data taken from PubChem BioAssay AID1508642 (National Center for Advancing Translational Sciences (NCATS), 2021).
Hit rate of the full screen: of about 43,000 compounds, about 200 (0.47%) were called active. Not shown: some 12% with an inconclusive outcome. Calls follow the shape of the dose curve; as a rule, active = well fitted cell-killing curve with a large enough effect; inconclusive = small, poorly fitted or top-dose-only effect, or effect the other way; inactive = flat fitted curve, though single readings scatter. The list shows a part of the results.

Experiment: Cell viability qHTS assay in S16 Pmp22-F2sN cells; also: nearly all actives have a fitted effect of over 65% in size
Settings: S16 Pmp22-F2sN Schwann cells viability, CellTiter-Glo, 24 h; at 57.5 µM (top of the series)
Outline: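 Used to flag compounds lowering reporter output through toxicity, this quantitative HTS measures ATP-based CellTiter-Glo luminescence in S16 Pmp22-F2sN Schwann cells after 24 h compound exposure at 37C.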
% is scaled to controls: 0 for no effect and ±100 for the full control effect.

Row | SMILES | activity change, negative = cytotoxicity
1 | O=C(Nc1ccc(Cl)cc1C(=O)c1ccccc1)c1cc(Cl)cc(Cl)c1 | inactive: -1.05%
2 | Cc1ccc(-n2c(/C=C/c3cccs3)nc3ccccc3c2=O)cc1C | inactive: -19.5%
3 | CCCC12CN3CC(CCC)(CN(C1)C3c1ccccn1)C2=O (stereo unspecified) | inactive: -11%
4 | CCN(CC)C(=O)c1ccc(NC(=O)Cn2nc(-c3ccc(C)cc3)c3ccccc3c2=O)cc1 | inactive: 8.71%
5 | Cc1ccc(Cn2cccc(C(=O)Nc3nnc(C)s3)c2=O)cc1 | inactive: 5.14%
6 | CCOC(=O)c1ccc(NC(=O)c2cccn(Cc3ccc(C)cc3)c2=O)cc1 | inactive: 1.94%
7 | CC(C)(C)c1ccc(OCC(=O)Nc2ccc(Cl)cc2C(=O)c2ccccc2)cc1 | inactive: -6.59%
8 | CCOc1ccccc1CN(CCc1ccc2c(c1)OCO2)Cc1ccc(CC)cc1 | inactive: 3.17%
9 | CSc1ncc(C(=O)Nc2ccc(Cl)cc2C(=O)c2ccccc2)c(C)n1 | inactive: -6.36%
10 | COc1ccc(NC(C)=O)cc1NC(=O)c1cccn(Cc2ccccc2)c1=O | inactive: 14.3%
11 | Cc1nnc(NC(=O)c2cccn(Cc3cccc([N+](=O)[O-])c3)c2=O)s1 | inactive: -12.9%
12 | CCCC12CN3CC(C)(CN(C1)C3c1ccccn1)C2=O (stereo unspecified) | inactive: -16.6%
13 | O=c1c2ccccc2nc(/C=C/c2ccccc2O)n1-c1ccc(Br)cc1 | inactive: 15.4%
14 | CCOc1ccc(NC(=O)c2cccn(Cc3cccc(Cl)c3)c2=O)cc1 | inactive: 3.99%
15 | N#Cc1cccc(NC(=O)c2sc3nc4c(cc3c2N)N2CCC4CC2)c1 | inactive: -24.7%
16 | N#Cc1cc2c(nc1SCC(=O)Nc1ccc(F)c(Cl)c1)C1CCN2CC1 | inactive: 6.8%
17 | O=C(Nc1ccc(Br)cc1C(=O)c1ccccc1Cl)c1ccccc1F | inactive: -0.888%
18 | COc1ccc(CCNCc2ccc3c(c2)n(C)c(=O)n3C)cc1 | inactive: -1.3%
19 | O=C1CC(c2ccc(F)cc2)c2c(c3ccccc3oc2=O)O1 (stereo unspecified) | inactive: -0.799%
20 | Cc1ccc(-c2nc(CN3C(=O)CN=C(c4ccccc4Cl)c4cc(Cl)ccc43)c(C)o2)cc1 | inactive: 2.53%
21 | O=C(Nc1ccc2c(c1)OCCO2)c1cccn(Cc2ccccc2)c1=O | inactive: 2.92%
22 | Cc1cccc(Cn2cccc(C(=O)Nc3nnc(C)s3)c2=O)c1 | inactive: 7.3%
23 | O=C1CC(c2ccc(C(F)(F)F)cc2)c2c(c3ccccc3oc2=O)O1 (stereo unspecified) | inactive: 3.35%

Row | SMILES | activity change, negative = cytotoxicity
24 | O=C(Nc1ccc2c(c1)OCO2)c1cccn(Cc2ccccc2)c1=O | inactive: 7.25%
25 | O=C(Nc1ccon1)c1cccn(Cc2cccc([N+](=O)[O-])c2)c1=O | inactive: -8.8%
26 | O=C(Nc1ccccc1)N(Cc1ccc2c(c1)OCO2)C1CCN(Cc2ccccc2)CC1 | inactive: -8.27%
27 | O=C(Nc1ccc(F)c(Cl)c1)N(Cc1ccc2c(c1)OCO2)C1CCN(Cc2ccccc2)CC1 | inactive: -23.6%
28 | Nc1c(C(=O)Nc2ccc(F)c(Cl)c2)sc2nc3c(cc12)N1CCC3CC1 | inactive: -27.4%
29 | COc1ccc(NC(=O)CN2C(=O)C(C)N=C(c3ccccc3)c3ccccc32)cc1OC (stereo unspecified) | inactive: -8.18%
30 | Cc1ccc(Cn2cccc(C(=O)Nc3nc4ccc(C)cc4s3)c2=O)cc1 | inactive: -2.86%
31 | Cc1ccc(OCC(=O)Nc2ccc(Cl)cc2C(=O)c2ccccc2)c(Br)c1 | inactive: 18.2%
32 | COc1ccc(C(c2c(O)c3ccccc3oc2=O)c2c(C)n(C)n(-c3ccccc3)c2=O)cc1 (stereo unspecified) | inactive: 5.59%
33 | N#Cc1cc2c(nc1SCC(=O)Nc1cccc(C(F)(F)F)c1)C1CCN2CC1 | inactive: -25.7%
34 | CCOc1ccccc1NC(=O)c1cccn(Cc2ccccc2C)c1=O | inactive: 7.9%
35 | CCSc1nnc(NC(=O)c2cccn(Cc3ccccc3Cl)c2=O)s1 | inactive: 21.9%
36 | Cc1cccc(OCC(=O)N2CCN(Cc3cc(=O)n4nc(-c5ccccc5Cl)sc4n3)CC2)c1 | inactive: 12.1%
37 | COc1cccc(-n2c(/C=C\c3ccc(Cl)cc3)nc3ccccc3c2=O)c1 | inactive: 2.1%
38 | c1cnc2c(c1)ncn2C1CCNCC1 | inactive: -0.833%
39 | Cc1ccc(C(C)(C)C)c(OCC(=O)Nc2ccc(Cl)cc2C(=O)c2ccccc2)c1 | inactive: -2.77%
40 | Cc1ccc(OCC(=O)N2CCN(Cc3ccc(F)cc3)CC2)cc1 | inactive: -1.74%
41 | Cc1cc(C)cc(NC(=O)CN2C(=O)CN=C(c3ccccc3)c3cc(Cl)ccc32)c1 | inactive: 3.73%
42 | O=C(COc1ccc(Br)cc1)Nc1ccc(Cl)cc1C(=O)c1ccccc1 | inactive: 5.55%
43 | O=c1c2ccccc2nc(/C=C/c2cccc3ccccc23)n1-c1ccc(Cl)cc1 | inactive: -1.27%
44 | COc1cc(OC)cc(C(=O)Nc2ccc(Cl)cc2C(=O)c2ccccc2Cl)c1 | inactive: 1.74%
45 | CCC12CN3CC(CC)(CN(C1)C3c1c(C)[nH]c(=O)[nH]c1=O)C2=O (stereo unspecified) | inactive: 7.36%
46 | COc1cc2[nH]c(=O)n(-c3ccc(C)cc3)c(=O)c2cc1OC | inactive: 6.64%

Row | SMILES | activity change, negative = cytotoxicity
47 | CCN(CC)C(=O)c1ccc(NC(=O)COc2ccc(-c3nn(C)c(=O)c4ccccc34)cc2)cc1 | inactive: 4.21%
48 | Cc1ccccc1-c1nc(CN2C(=O)CN=C(c3ccccc3)c3ccccc32)c(C)o1 | inactive: -5.83%
49 | COc1ccccc1-c1nn2c(=O)cc(CN3CCN(C(=O)COc4ccccc4Cl)CC3)nc2s1 | inactive: -1.06%
50 | CCc1ccc(-n2nc(C)c3c2NC(=O)CSC3c2ccc(C(=O)OC)cc2)cc1 (stereo unspecified) | inactive: -2.55%
51 | O=C(Nc1ccc(Br)cc1C(=O)c1ccccc1Cl)c1ccc(Br)cc1 | inactive: 1.63%
52 | Cc1ccc2nc(NC(=O)c3cccn(Cc4ccccc4F)c3=O)sc2c1 | inactive: 11.3%
53 | Cc1ccc2c(=O)n(-c3cccc(Cl)c3)c(=O)[nH]c2c1 | inactive: 3.09%
54 | CCN(CC)C(=O)c1ccc(NC(=O)c2ccc(-c3nn(C)c(=O)c4ccccc34)cc2)cc1 | inactive: 26.7%
55 | Cc1ccc(-c2nc(CN3C(=O)CN=C(c4ccccc4)c4ccccc43)c(C)o2)cc1 | inactive: -14.6%
56 | Cc1ccc(Cn2cccc(C(=O)Nc3ccc4c(c3)OCCO4)c2=O)cc1 | inactive: 3.97%
57 | COc1ccccc1C1SCC(=O)Nc2c1c(C)nn2-c1cccc(C)c1 (stereo unspecified) | inactive: -3%
58 | COc1cccc(NC(=O)c2cccn(Cc3ccccc3C)c2=O)c1 | inactive: 7.18%
59 | CCCC12CN3CC(C)(CN(C1)C3c1c(C)[nH]c(=O)[nH]c1=O)C2=O (stereo unspecified) | inactive: 6.57%
60 | COc1ccc(Br)cc1C1SCC(=O)Nc2c1c(C)nn2-c1ccccc1C (stereo unspecified) | inactive: -0.931%
61 | CCCC1=Nc2cc(C(=O)NCCCN(CC)CC)ccc2Sc2ccccc21 | inactive: 4.18%
62 | Cc1ccc(Cn2cccc(C(=O)Nc3cc(C)on3)c2=O)cc1 | inactive: 8.47%
63 | Cc1c(C(c2ccc(Br)cc2)c2c(O)c3ccccc3oc2=O)c(=O)n(-c2ccccc2)n1C (stereo unspecified) | inactive: -3.43%
64 | COc1ccc(OCC(=O)N2CCN(CCc3ccncc3)CC2)cc1 | inactive: 1.11%
65 | Cc1ccccc1-n1nc(C)c2c1NC(=O)CSC2c1ccc(Cl)cc1 (stereo unspecified) | inactive: -24.2%
66 | COc1ccc(NC(=O)CCc2nc(C3=CCN(Cc4cccc(Cl)c4)CC3)no2)c(OC)c1 | inactive: -27.7%
67 | O=S1(=O)N(Cc2ccccc2Cl)CCCN1Cc1ccccc1Cl | inactive: 2.95%
68 | O=C(Nc1ccc2c(c1)OCO2)c1cccn(Cc2cccc([N+](=O)[O-])c2)c1=O | inactive: 2.35%
69 | Cc1ccccc1OCC(=O)N1CCN(CCc2ccccn2)CC1 | inactive: -0.566%

Row | SMILES | activity change, negative = cytotoxicity
70 | COc1cccc(C2SCC(=O)Nc3c2c(C)nn3-c2ccc(C)c(Cl)c2)c1OC (stereo unspecified) | inactive: -8.14%
71 | O=c1c2ccccc2nc(/C=C/c2ccccc2F)n1-c1cccc(O)c1 | inactive: 7.81%
72 | CCc1nc(SC)ncc1C(=O)Nc1ccc(Cl)cc1C(=O)c1ccccc1 | inactive: 4.21%
73 | Cc1cccc(-n2nc(C)c3c2NC(=O)CSC3c2ccccc2Cl)c1 (stereo unspecified) | inactive: -26.1%
74 | CC(C)Cc1nc2cccnc2n1C1CCNCC1 | inactive: -38.1%
75 | Cc1ccc(NC(=O)Cn2cc(C(=O)c3ccccc3)c3ccccc32)c(C)c1 | inactive: -14.1%
76 | COc1ccc(-n2c(/C=C/c3cccc(F)c3)nc3ccccc3c2=O)cc1Cl | inactive: -2.5%
77 | CCCCC12CN3CC(C)(CN(C1)C3c1ccccn1)C2=O (stereo unspecified) | inactive: 0.114%
78 | Cc1ccc(OCC(=O)Nc2ccc(Cl)cc2C(=O)c2ccccc2)cc1C | inactive: -3.26%
79 | Cc1nnc(NC(=O)c2cccn(Cc3cccc(F)c3)c2=O)s1 | inactive: 3.77%
80 | COc1ccc(OCC(=O)N2CCN(Cc3ccc(SC)cc3)CC2)cc1 | inactive: -8.44%
81 | Cc1ccccc1-n1c(/C=C/c2ccc(N(C)C)cc2)nc2ccccc2c1=O | inactive: -15.6%
82 | O=C(c1ccc2c(c1)N(Cc1ccc(F)cc1)C(=O)c1ccccc1S2)N1CCC2(CC1)OCCO2 | inactive: -8.39%
83 | Cc1cccc(Cn2cccc(C(=O)Nc3ccc(F)cc3F)c2=O)c1 | inactive: 6.91%
84 | Cc1ccc(OCC(=O)N2CCN(CCc3ccncc3)CC2)cc1 | inactive: 2.71%
85 | CC(C)c1ccc(OCC(=O)N2CCN(CCc3ccccn3)CC2)cc1 | inactive: -5.85%
86 | Cc1ccc(C(C)C)c(OCC(=O)N2CCN(CCc3ccncc3)CC2)c1 | inactive: -6.31%
87 | Cc1ccc(C(=O)Nc2ccccc2)cc1S(=O)(=O)N1CCCC1 | inactive: 15.9%
88 | CCc1ccc(OCC(=O)N2CCN(CCc3ccncc3)CC2)cc1 | inactive: 5.11%
89 | CCOc1ccc2nc(NC(=O)c3cccn(Cc4ccccc4Cl)c3=O)sc2c1 | inactive: 10.4%
90 | CCOc1ccc(CN(CCc2ccc3c(c2)OCO3)Cc2ccc(OC)c(Br)c2)cc1 | inactive: 3.46%
91 | Cc1ccccc1CN1C(=O)C(C)N=C(c2ccccc2)c2ccccc21 (stereo unspecified) | inactive: -21.5%
